Source: PubChem BioAssay AID651820 (National Center for Advancing Translational Sciences (NCATS), 2012)
Screen size: about 340,000 compounds; about 12,000 (3.5%) were called active. Inconclusive results, whose numbers are uncertain, are shown with a selection of clear calls. Calls follow the shape of the dose curve; as a rule, active = well fitted inhibition curve with a large enough effect; inconclusive = small, poorly fitted or top-dose-only effect, or another doubt; inactive = no such curve, though single readings can be large or run the other way. Potencies of inconclusive entries are left out as doubtful fits.

assay: qHTS Assay for Inhibitors of Hepatitis C Virus (HCV); conditions: Huh7.5.1 HCVcc-Cre (HCVcc is cell-culture hepatitis C virus) infection, luciferase reporter, 44 h; series mostly up to 41.8 µM
How it was run: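 Infectious HCV cell culture screen: compound-treated cells (1,000/well, pre-plated 4 h) are infected with HCVcc-Cre at roughly 0.5 moi and grown 44 h. Infection is quantified by luciferase signal after 15 min substrate incubation at room temperature.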
Potency is read from the fitted curve at half-maximal effect; tags tell the direction and shape of the fitted curve.

| Structure (SMILES) | Potency |
| --- | --- |
| COc1ccc(CNC(=O)C[C@H]2C[C@H](C(=O)N3CCCCC3)[C@@]3(C)c4[nH]c5ccc(Cl)cc5c4CCN3C2=O)cc1OC | active: 14.1 µM |
| c1cncc(CSc2ccc(-c3ccc4c(c3)OCO4)nn2)c1 | inconclusive [inhibitor, single point] |
| Cc1ccc2c(c1)N(CC(=O)N1CCN(c3nc4ccccc4s3)CC1)C(=O)C(C)O2 (stereo unspecified) | inconclusive [inhibitor, partial curve] |
| CC(=O)C12CC(C)=C(C)CC1CC1C3CCC4=CC(=O)CCC4(C)C3CCC12C (stereo unspecified) | inconclusive [inhibitor, single point] |
| O=C(COc1ccc2ccccc2c1)N1c2ccccc2Sc2ccccc21 | inactive |
| COc1c2ccoc2c(OCC=C(C)C)c2oc(=O)ccc12 | inconclusive [inhibitor, partial curve] |
| COc1ccc(CNc2oc(-c3cccc4ccccc34)nc2P(=O)(OC)OC)cc1 | inconclusive [inhibitor, partial curve] |
| CCCCc1ccc(N=N/C(C(=O)Nc2cc(OC)c(NC(C)=O)cc2OC)=C(/C)O)cc1 | inactive |
| COc1ccc(NC(=O)c2ccc(C#N)cc2)cc1NS(=O)(=O)c1ccc(F)cc1 | inactive |
| CCC(C)n1nccc1NC(=O)C(C)OC(=O)c1cc2ccccc2[nH]1 (stereo unspecified) | inconclusive [inhibitor, single point] |
| Cc1ccc(C(=O)Nc2sc3c(c2C#N)CCCCC3)cc1C | inconclusive [inhibitor, full curve] |
| Cc1ccc(CNC(=O)c2cc3c(C)nc4ccccc4c3o2)cc1 | inconclusive [inhibitor, partial curve] |
| CC1(C)C=Cc2c(ccc3c2OC[C@H](c2ccc(O)cc2O)C3)O1 | inconclusive [inhibitor, single point] |
| COc1ccc(NC2CCCN(C(=O)c3ccc4[nH]c(C)c(C)c4c3)C2)cc1 (stereo unspecified) | inactive |
| COc1ccc(S(=O)(=O)N2CCCCCC2)cc1C(=O)N(C)CC(=O)Nc1ccccc1Br | inconclusive [inhibitor, partial curve] |
| CCOc1ccc(S(=O)(=O)N2CCC(C(=O)N3CCN(c4ccccc4)CC3)CC2)cc1 | inactive |
| C/C(=N/O)c1cc(C(C)(C)C)c(O)c(C(C)(C)C)c1 | inconclusive [inhibitor, single point] |
| CCOC(=O)c1sc(NC(=O)OC)c(C(=O)OC)c1C | inconclusive [inhibitor, partial curve, poor fit] |
| COc1ccc(CN(C)CC(=O)Nc2ccccc2C(=O)NC2CC2)cc1F | inconclusive [inhibitor, single point] |
| CC1Cc2ccccc2N1C(=S)NC(=O)c1ccco1 (stereo unspecified) | inactive |
| CC1=C(C(=O)c2ccccc2)C(c2ccc(O)cc2)NC(=S)N1 (stereo unspecified) | inactive |
| S=C(Nc1ccc2nc(-c3ccccn3)c(-c3ccccn3)nc2c1)N1CCOCC1 | inconclusive [inhibitor, partial curve] |
| O=C(Nc1ncc2c(n1)-c1ccccc1CC2)C1CC1 | inconclusive [inhibitor, single point] |
| COc1ccc(C2C(O)C(c3c[nH]c4ccccc34)=NN2C(=O)CCl)cc1 (stereo unspecified) | active: 0.562 µM |

| Structure (SMILES) | Potency |
| --- | --- |
| Cc1nc(Nc2ccccc2Cl)sc1C(=O)Nc1ccccc1 | inconclusive [inhibitor, full curve] |
| CCCCCC(O)(c1ccccc1)C(CN1CCOCC1)c1ccccc1 (stereo unspecified) | inconclusive [inhibitor, single point] |
| CN(C)S(=O)(=O)c1ccc(C(=O)Oc2ccccc2)cc1 | inactive |
| Cc1c(/C=N/NC(=O)C(NC(=O)c2ccc3c(c2)OCO3)C(C)C)c2ccccc2n1C (stereo unspecified) | active: 11.2 µM |
| CCOc1ccccc1NC(=O)COn1nnc2ccccc21 | active: 12.6 µM |
| Cn1c(NCCCN2CCOCC2)nc2c1c(=O)n(Cc1ccc(Cl)cc1Cl)c(=O)n2C | active: 11.2 µM |
| Cc1nc(C)c(-c2csc(Nc3cccc(O)c3)n2)s1 | active: 25.1 µM |
| COc1ccc(OC)c(/C=N/N(C)c2ccccc2)c1 | inconclusive [inhibitor, partial curve] |
| COc1cccc(C(=O)NC(=S)Nc2ccc(N3CCCC3)cc2)c1 | inconclusive [inhibitor, single point] |
| COc1cc(/C=C/C(=O)N2CCOCC2)ccc1OCc1ccccc1 | inconclusive [inhibitor, partial curve, poor fit] |
| COCC(C)n1c(C)cc(C(=O)COC(=O)/C=C/c2cccc(F)c2)c1C (stereo unspecified) | inconclusive [inhibitor, single point] |
| COc1ccc(CNC(=O)C(=O)NCCC2CCCCN2S(=O)(=O)c2ccc(C)cc2)cc1 (stereo unspecified) | inconclusive [inhibitor, single point] |
| Cc1ccc(C(=O)N/N=C/C2=Cc3ccccc3OC2C)cc1 (stereo unspecified) | inconclusive [inhibitor, single point] |
| CCOC(=O)N1CCN(C(=O)COc2ccc(S(=O)(=O)Nc3ccc(OCC)cc3)cc2)CC1 | inconclusive [inhibitor, single point] |
| Cc1ccc(-c2cn3cccc(C)c3n2)cc1 | inactive |
| CSc1nc(Cl)c(C#N)c(-c2ccc(C)cc2)n1 | inactive |
| COc1ccc(C(c2nnnn2Cc2cccs2)N2CCN(c3ccc(F)cc3)CC2)cc1OC (stereo unspecified) | inactive |
| Cc1ccc(Cl)cc1N1CCN(C(=O)COc2ccc(S(=O)(=O)NC(C)C)cc2)CC1 | active: 10 µM |
| Cc1nc2ccccc2n1CC(=O)NN | inactive |
| O=C(NCc1ccc2c(c1)OCO2)c1cc([N+](=O)[O-])ccc1N1CCCCC1 | inconclusive [inhibitor, full curve] |
| COc1ccc(C(=O)NC(=S)NNC(=O)c2ccc3ccccc3n2)cc1 | active: 11.2 µM |
| CCOc1ccc(NS(=O)(=O)c2cc3c(cc2C)N(C)CCO3)cc1 | inconclusive [inhibitor, single point] |
| N/C(=N\OC(=O)c1ccncc1)c1cccc([N+](=O)[O-])c1 | inconclusive [inhibitor, single point] |
| Cc1ccc(CN(Cc2cccnc2)C(=S)Nc2cccc(Cl)c2C)cc1 | inconclusive [inhibitor, single point] |

| Structure (SMILES) | Potency |
| --- | --- |
| Cc1nc(-c2cccnc2)sc1C(=O)Nc1ccc(C(F)(F)F)cc1 | inconclusive [inhibitor, partial curve] |
| Cc1ccc(C(C(=O)NC2CCCCC2)N(CC2CCCO2)C(=O)CCCC(=O)Nc2ccccn2)cc1 (stereo unspecified) | inactive |
| COc1ccc(C(=O)COC(=O)c2ccc3c(c2)NC(=O)CS3)c(OC)c1 | inconclusive [inhibitor, single point] |
| COC(=O)C1=C(c2ccc(F)cc2OCc2ccccc2)C[C@@H]2CC[C@H]1N2C(=O)NCc1ccc(OC)c(OC)c1 | inconclusive [inhibitor, partial curve] |
| CNCc1ccccc1Sc1cccc2ccccc12 | inconclusive [inhibitor, partial curve] |
| CCOc1ccc(C2=Nn3c(nnc3-c3ccccc3)SC2)cc1Cl | inactive |
| NS(=O)(=O)c1cccc(NC(=O)c2ccc(NS(=O)(=O)c3cccc([N+](=O)[O-])c3)cc2)c1 | inactive |
| O=c1c2ccccc2nc2n1C(CSc1ccccc1)CS2 (stereo unspecified) | inactive |
| Cc1ccc(CC(=O)Nc2nccs2)cc1 | inactive |
| CCOC(=O)C1(C)C=C(Nc2ccc(C)cc2)C(=O)N1c1ccc(C)cc1 (stereo unspecified) | inconclusive [inhibitor, single point] |
| O=C(Oc1cccc2cccnc12)c1ccc(N2C(=O)C3C4CCC(C4)C3C2=O)cc1 (stereo unspecified) | inconclusive [inhibitor, single point] |
| O=C(N[C@H]1C/C=C\C(c2cccc(F)c2)N(Cc2ccccc2)C(=O)C1)OCC1c2ccccc2-c2ccccc21 (stereo partly specified) | inconclusive [inhibitor, full curve, poor fit] |
| COc1ccccc1N1CCN(CC(=O)Nc2ccc3c(c2)OCCO3)CC1 | inactive |
| OCC1OC(Oc2c[nH]c3ccccc23)C(O)C(O)C1O (stereo unspecified) | inactive |
| Cc1noc(C)c1S(=O)(=O)Nc1cccc(C(F)(F)F)c1 | inactive |
| CCCOc1ccc(N2C(=O)CC(N3CCCC(C(=O)N4CCCC4)C3)C2=O)cc1 (stereo unspecified) | inconclusive [inhibitor, single point] |
| COc1ccc(/C=C/c2ccc(=O)n(Cc3ccccc3)n2)cc1 | inconclusive [inhibitor, partial curve] |
| O=C(COc1ccc(F)cc1)Nc1cc(S(=O)(=O)N2CCCCC2)ccc1N1CCCCC1 | inconclusive [inhibitor, single point] |
| Cc1cccc(C)c1NC(=O)Cn1nc(-c2ccc(Cl)s2)ccc1=O | inconclusive [inhibitor, single point] |
| CCSc1nc2ccccc2n1Cc1cccc([N+](=O)[O-])c1 | inconclusive [inhibitor, single point] |
| Cc1ccc(-n2ncc(C#N)c2/N=C/N2CCOCC2)cc1 | inconclusive [inhibitor, full curve] |
| CCCCn1c(=O)c(C(=O)Nc2cccc(C)c2)c(O)c2ccccc21 | inconclusive [inhibitor, full curve, poor fit] |
| Cn1c(CN2CCCC2)nc2cc(NC(=O)COc3ccccc3)ccc21 | inactive |
